Source: PubChem BioAssay AID1030 (National Center for Advancing Translational Sciences (NCATS), 2008)
Where “and” joins values, the source holds several entries; their conditions need not be identical. Identical values can stand only once. Screen size: about 220,000 compounds; about 16,000 (7.3%) were called active. Inconclusive means that the source gave no clear call. Such entries were picked first, then a sample of the others. The call rests on the fitted dose curve; in most records, active means well fitted inhibition curve with a large enough effect (not every such curve was filed as active); inconclusive means small, poorly fitted or top-dose-only effect, or another doubt; inactive means no such curve, though single readings can be large or run the other way. A potency beside an inconclusive call is a rough fit, not a confirmed value.

These molecules were tested against Aldehyde dehydrogenase 1A1 (Homo sapiens) (UniProt P00352) (assay: qHTS Assay for Inhibitors of Aldehyde Dehydrogenase 1 (ALDH1A1)). Details: Purified ALDH1A1, NADH fluorescence, propionaldehyde substrate; series mostly up to 75.3 µM; activity, negative = inhibition: at the top concentration.
Sequence of UniProt P00352 (P00352 whole entry, looked up): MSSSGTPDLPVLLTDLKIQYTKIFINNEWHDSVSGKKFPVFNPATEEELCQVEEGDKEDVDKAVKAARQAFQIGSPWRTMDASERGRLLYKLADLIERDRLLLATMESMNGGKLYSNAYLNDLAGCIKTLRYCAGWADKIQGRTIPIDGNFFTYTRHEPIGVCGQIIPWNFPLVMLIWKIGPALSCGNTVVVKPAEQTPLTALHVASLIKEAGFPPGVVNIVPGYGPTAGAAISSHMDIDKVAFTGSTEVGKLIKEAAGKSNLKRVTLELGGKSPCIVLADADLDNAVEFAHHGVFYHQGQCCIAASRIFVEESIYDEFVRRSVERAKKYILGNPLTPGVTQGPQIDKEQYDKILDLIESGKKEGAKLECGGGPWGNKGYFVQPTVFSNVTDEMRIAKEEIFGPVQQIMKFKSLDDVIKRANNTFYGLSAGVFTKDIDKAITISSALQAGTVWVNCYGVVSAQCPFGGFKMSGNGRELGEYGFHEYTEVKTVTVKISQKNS
Potency means the concentration at half of the fitted maximal effect; tags describe the fitted curve by direction and shape.
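Wherever activity, negative = inhibition is given: plate controls were no enzyme wells and a reference inhibitor.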

Potency, active:
COc1ccc2c(C)cc(=S)[nH]c2c1 31.6 µM
CC(C)C(=O)Nc1cccc(NC(=S)NC(=O)C(c2ccccc2)c2ccccc2)c1 25.1 µM
O=C(CSc1nnc(SCc2ccc(Cl)cc2)s1)c1ccc2c(c1)OCO2 2.24 µM
CC(=O)Oc1ccc(N2C(=O)CC(N3CCOCC3)C2=O)cc1 (stereo not given) 31.6 µM
COc1ccc(/C=C/C(O)=C(\C#N)c2nnc(N3CCOCC3)n2-c2ccccc2)cc1OC 12.6 µM
O=C(CCN1C(=O)C2C3C=CC(C3)C2C1=O)NCCc1ccccc1Cl (stereo not given) 8.91 µM
COc1cc(NC(=O)c2ccc3c(=O)n(Cc4ccco4)c(=S)[nH]c3c2)cc(OC)c1OC 1.26 µM
O=C(CCSc1ccc(Cl)cc1)c1cccs1 0.355 µM
Cc1ccc(C2=N/C(=C\c3ccc(OS(=O)(=O)c4ccc(C)cc4)cc3)C(=O)O2)cc1 25.1 µM
Cc1ccc(-c2cc(NC(=O)CCl)n(-c3ccccc3)n2)cc1 0.501 µM

Potency, inconclusive:
Cc1ccc(S(=O)(=O)NC(C(=O)Oc2cc3oc(=O)cc(C)c3cc2Cl)C(C)C)cc1 (stereo not given) 25.1 µM [inhibitor, partial curve]
COc1ccc(-c2cc3nc(C4CCN(C(=O)OC(C)(C)C)CC4)c(C(=O)O)cn3n2)cc1 31.6 µM [inhibitor, single point]
COc1ccc(-c2nc(CC(=O)O)cs2)cc1OC 28.2 µM [inhibitor, partial curve]
Cc1cc(C)n(C(=O)c2ccc(C)c(S(=O)(=O)N3CCCCC3)c2)n1 39.8 µM [inhibitor, single point]
O=C(Nc1ccccc1)N1N=C(c2ccc(F)cc2)CC1c1ccc(F)cc1 (stereo not given) 39.8 µM [inhibitor, single point]
O=C(Nc1cccc2ncccc12)C(c1ccccc1)c1ccccc1 39.8 µM [inhibitor, single point]
O=c1oc2ccccc2n1Cc1ccccc1Cl 12.6 µM [inhibitor, partial curve]
CCN(C(=O)N(CC)c1ccccc1)c1ccccc1 25.1 µM [inhibitor, single point]
Cc1cc(C)nc(NS(=O)(=O)c2ccc(NC(=O)C3CC(=O)N(c4ccccc4)C3)cc2)n1 (stereo not given) 39.8 µM [inhibitor, single point]
O=C(CN(Cc1cccs1)C(=O)CNS(=O)(=O)c1ccc(Cl)cc1)NCC1CCCO1 (stereo not given) 39.8 µM [inhibitor, single point]
COc1ccc(C(C)=O)cc1COC(=O)c1cccc(N(C)C)c1 28.2 µM [inhibitor, single point]
CCCCC(=O)NC(=S)Nc1ccccc1N1CCCCC1 28.2 µM [inhibitor, single point]
O=C(NCc1ccc(Cl)cc1)c1cc(-c2ccco2)on1 14.1 µM [inhibitor, partial curve]
COc1ccc(C2C3=C(CCCC3=O)Nc3c(-c4ccccc4)c(C)nn32)cc1 (stereo not given) 31.6 µM [inhibitor, partial curve]
CCOc1ccc(-n2nc3c(=O)n(CCN4CCCCC4)nc(C)c3c2C)cc1 39.8 µM [inhibitor, single point]
COc1ccccc1NC(=S)N(CCc1c(C)[nH]c2ccccc12)Cc1cccs1 39.8 µM [inhibitor, single point]
Cc1cccc2cc(COC(=O)C(C)(C)C)c(=O)[nH]c12 28.2 µM [inhibitor, partial curve]
Cc1ccc(Cl)c2c1NC(=O)C2(O)CC(=O)c1ccccc1O (stereo not given) 25.1 µM [inhibitor, partial curve]
COc1ccc(-c2csc(/C(C#N)=C\c3ccc(O)c([N+](=O)[O-])c3)n2)cc1OC 39.8 µM [inhibitor, single point]
Cc1nn(-c2ccccc2)c(C)c1/C=N/NC(=O)CSc1nnc(-c2ccccc2)n1-c1ccc(Cl)cc1 5.01 µM [inhibitor, single point]
Cc1ccc(NC(=O)CN2CCN(S(=O)(=O)c3cccs3)CC2)cc1S(=O)(=O)N(C)C 39.8 µM [inhibitor, single point]
CC(=O)Oc1c(Sc2ccccc2[N+](=O)[O-])c(C)nn1C(C)(C)C 39.8 µM [inhibitor, single point]
Cc1sc(Cc2nc(O)cs2)nc1-c1ccccc1 35.5 µM [inhibitor, single point]
COCCNC(=O)c1cc2c(-c3ccccc3F)nn(C)c2s1 31.6 µM [inhibitor, single point]
Cc1ccc2c(c1)CCCN2C(=O)c1ccncc1 39.8 µM [inhibitor, single point]
O=C(NCCO)c1ccc2c(c1)S(=O)(=O)c1ccccc1C2=O 39.8 µM [inhibitor, single point]
COc1ccc(C(=O)CSc2nnc(-c3ccc(C)cc3)o2)cc1 5.01 µM [inhibitor, partial curve, poor fit]
COc1ccccc1/C=C1/C(=O)N(c2cc(C)cc(C)c2)C(c2cccc([N+](=O)[O-])c2)S1(=O)=O (stereo not given) 28.2 µM [inhibitor, single point]
Cc1ccccc1OCCn1cnc2cc([N+](=O)[O-])ccc2c1=O 39.8 µM [inhibitor, single point]
COC(=O)c1ccccc1NC(=O)CSc1nc2ccccc2c(=O)[nH]1 25.1 µM [inhibitor, partial curve]
O=C(Nc1ccc(N2CCN(C(=O)c3ccccc3)CC2)cc1)c1ccc2c(c1)OCO2 3.55 µM [inhibitor, single point]
COc1ccc(C2Nc3ccccc3C(=O)N2NS(C)(=O)=O)cc1 (stereo not given) 31.6 µM [inhibitor, single point]
COc1ccc(-c2noc(CCC(=O)Nc3cccnc3)n2)cc1OC 31.6 µM [inhibitor, single point]
COC(=O)CCC(=O)OC1(C)C(=O)C2=CN(CCc3ccccn3)C(c3ccc(OC)cc3)=CC2=C(Br)C1=O (stereo not given) 3.55 µM [inhibitor, partial curve]
CC(C)OC(=O)CSc1nnc(Cc2ccccc2)n1Cc1ccco1 39.8 µM [inhibitor, single point]
C/C(CC(=O)NCc1ccc(Cl)cc1)=N\NC(=O)c1ccccc1F 31.6 µM [inhibitor, single point]
Cc1ccccc1Cc1c(C)nc2c(C(=O)NCc3ccco3)cnn2c1C 23.8 µM [inhibitor, partial curve]
Cc1cnc(N)c2c(=O)oc3ccccc3c12 39.8 µM [inhibitor, single point]

activity, negative = inhibition, inactive:
CC(C)(C)NC(=O)C(c1ccccn1)N(C(=O)C1CSC(=O)C1)c1ccc(F)cc1 (stereo not given) 5.92%
O=C(CSc1ccc(-c2cccs2)nn1)Nc1ccccc1F -4.56%
O=C(NCCCN1CCOCC1)c1cccs1 -3.24%
COc1cc2c(cc1OC)Cc1cc(OC)c(OC)cc1Cc1cc(OC)c(OC)cc1C2 -3.81%
CSC(=O)CC(=O)NC(=O)c1ccccc1 -7.83%
CCCCNCCCOc1cccc(Cl)c1Cl 6.74%
O=C(c1ccco1)N1CCC2(CCN(Cc3nccs3)CC2)CC1 -6.96%
COc1ccc(OC)c(C2C(C#N)=C(N)Oc3cc(C)[nH]c(=O)c32)c1 (stereo not given) -1.18%
O=C(NNc1ncc(C(F)(F)F)cc1Cl)c1ccc(Cl)c(Cl)c1 -10.1%
O=C(CSc1nc(O)c(C2CCCCC2)c(=O)[nH]1)N1CCOCC1 0.455%
CCOC(=O)CCC(=O)NCc1ccc2c(c1)cc(C)n2C -7.38%
COC(=O)N1CCC[C@@]2(CCN(C(=O)Nc3ccccc3)C2)C1 -2.09%
CCn1c2ccc(OC)cc2c2nc3ccccc3nc21 -3.12%
CCOC(=O)CSc1nnc(NCC(=O)OC)c(=O)[nH]1 -1.71%
Cn1nc(C(F)(F)F)c(/C=N/OC(=O)c2ccccc2)c1SCc1ccccc1Cl 21%
COc1ccc(OC2C=CC(C#Cc3ccc(F)cc3F)OC2CO)cc1 (stereo not given) -4.6% [at 13.5 µM] and -6.68% [at 13.5 µM]
O=C(Nc1nccs1)c1ccc(COc2ccc(Cl)cc2)o1 -5.5%
COC(=O)C1=C(C)NC(=O)NC1c1ccsc1 (stereo not given) -1.65%
CC(=O)OC1CC2C(C)(C)C(O)CCC2(C)C2CC[C@]3(C)C(=CC(=O)OC3c3ccoc3)C12C (stereo not given in full) -6.28%
COc1ccc(OCCCn2cccc2/C=C2/C(=N)N3OC(C)=CC3=NC2=O)cc1 -8.86%
CCOC(=O)c1c(/N=C/c2cccc(C)c2O)sc2c1CCN(C)C2 -5.44%
CN(C)C(=S)NC(C)(C)C 2.75%
Cc1nn(C)cc1CN(C)S(=O)(=O)c1cccc([N+](=O)[O-])c1 0.973%
COC(=O)Cc1cc(=O)[nH]c(/N=C(\N)Nc2ccc(C(C)C)cc2)n1 2.69%
CC(Oc1ncnc2ccccc12)C(=O)Nc1cccc(S(=O)(=O)N2CCOCC2)c1 (stereo not given) -5.27%
CC(C)Cn1nnnc1S(=O)(=O)CCc1ccccc1 -12.6%
COc1ccc(-n2ncc3c(NCc4ccco4)ncnc32)cc1 -10.7%
